For 22 molecules, binding signal results are on record in publication PMC12136788.

First the molecules themselves.
T1: UNK ZnF1-3 (human, UniProt Q9C0B0 31-174)
T1 sequence: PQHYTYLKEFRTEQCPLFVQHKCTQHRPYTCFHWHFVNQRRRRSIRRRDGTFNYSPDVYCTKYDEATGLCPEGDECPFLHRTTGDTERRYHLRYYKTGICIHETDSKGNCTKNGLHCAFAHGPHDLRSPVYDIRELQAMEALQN

B1: chr15:83907949:83907950:-_ENSMUSG00000018865_ENSMUST00000082365|mus_mus|motif|central (ssRNA)
RNA: GGGAGUUCUACAGUCCGACGAUCCUGGUAUUAUAGAUAAAAGUCAAACGUGAGGUCACACUUCCCCAUCUUCUGUUUGUACACGGGAUCAAACUUCUCGUUCAUGGAGACGGUGAAGAUGUCCUUCCACAGCCCAACUCUUCCCAACAGAGGAUUGAGCAUCA
B2: 11913194_11913314_1211_3pUTR_ENSMUSG00000022205_ENSMUST00000022816|mouse|control|control (ssRNA)
RNA: GGGAGUUCUACAGUCCGACGAUCGUUUCACACUUUUUACAAGUCUAAUCUAGUUUAAUAUCUGACUUUAUAACCAUCACCCUAGCACAAAUGUUUACUGAGUGACAGCUCAUCAGACAUCAAAGUCACUAUGUUCUGUAAACUCAACAGAGGAUUGAGCAUCA
B3: chr18:33598288:33598289:-_ENSMUSG00000042834_ENSMUST00000171533|mus_hu|motif|central (ssRNA)
RNA: GGGAGUUCUACAGUCCGACGAUCAGUCAGAAUGAUUAAAAACUGGUUUGAUGACACCUAUUUGUCCACUGUAAAUUCUCGGAAGCAAGGCUCAGAGUCCCAUAGUUUCUUCUUAUACUUGAUGAUUUACACAGAAAAAAAUCCCAACAGAGGAUUGAGCAUCA
B4: 87967838_87967958_4594_CDS_ENSG00000188994_ENST00000369577|human|control|control (ssRNA)
RNA: GGGAGUUCUACAGUCCGACGAUCCAACAGGGGUGGUACAGUUGGAUUUGGCAUCACCGUUGCAUUUACUUGUGAUGCAUCAGAGACACAACCUGUUGAAACAUGAGAAAGCAUUUCGGCACCCUCAAAUGUACUGGGAAUGCCCAACAGAGGAUUGAGCAUCA
B5: chr5:110834802:110834803:-_ENSG00000164211_ENST00000296632|hu_hu|FALSE|FALSE (ssRNA)
RNA: GGGAGUUCUACAGUCCGACGAUCUUACCCAUAUUAACAACAACAAAACAGUAGACACAGGAAUACUAACACAUAAACAACUAACAUUAAACACGGAAAUGGAUUUCGAGAUGUGUGCAUGUACACAAAAAAAUAUAUACAAAGCAACAGAGGAUUGAGCAUCA
B6: chr3:148802587:148802588:-_ENSG00000071794_ENST00000310053|hu_mus|hu_hu_hu_mus_False|1_98 (ssRNA)
RNA: GGGAGUUCUACAGUCCGACGAUCUCCAACAACUUGUCCUCUCAAACUUCCAAAUAAAACCAAAUCUUGCUCUUCAUCACUCGUUAGGAAGUCAUCUGGAGGAAUAAUGUCUUGGAAUUCAAAAUGUGGCAAGAAAGUUGGAUACAACAGAGGAUUGAGCAUCA
B7: chr5:22970553:22970554:+_ENSMUSG00000029004_ENSMUST00000094962|mus_hu|motif|central (ssRNA)
RNA: GGGAGUUCUACAGUCCGACGAUCAGCACUGGAAGUUUCAUCAAAAUUAGGAGUGGUAAAUAUGCCUACUUCAUUUUUGCGGAUAAGGACUGAUGGAGGAGGGGAAGCCGGAGGUGUCGGAGGAGGACGAGCACCAUAAUUAUGCAACAGAGGAUUGAGCAUCA
B8: chr7:65705475:65705476:+_ENSG00000169902_ENST00000304842|hu_hu|hu_hu_hu_mus_True|38_38 (ssRNA)
RNA: GGGAGUUCUACAGUCCGACGAUCUCUAUUCGGUGAUGGCACUCCAUGGCAUGCUGGCCCAGGUAAAACACGGUCACAGAACUAAUCACCAGACACGCCAAUAGUAAGUUCUGCUUCAGCUUCCCAACCAUCUUGAUGUGGUUACAACAGAGGAUUGAGCAUCA
B9: chr11:118268936:118268937:-_ENSMUSG00000025575_ENSMUST00000017620|mus_mus|FALSE|FALSE (ssRNA)
RNA: GGGAGUUCUACAGUCCGACGAUCACCCCUUGCUCCCAGUCUCCGAGCAGUACACCCAUAUGGGCCGGGGCUCAGCUCCCUAUAAUGAAAUUCUCUAGCCAGGAACACAGCUCUUAGUUAAAAAAAGAAAAAAAGCAAACGAGUCAACAGAGGAUUGAGCAUCA
B10: chr7:878492:878493:+_ENSG00000164828_ENST00000456758|hu_hu|motif|central (ssRNA)
RNA: GGGAGUUCUACAGUCCGACGAUCGUCGGCACCCACAGCCUCACCAUCCCCCAGGGUGCAUGCUGUCGUGGCCAGGCGCAAACGGCGGCGGGACAUCCGUGGAGAAUCAAAUACAGGGUCCAAUUUGUGCUCCGUCUCAAAAUCCAACAGAGGAUUGAGCAUCA
B11: chr16:94690476:94690477:+_ENSMUSG00000040785_ENSMUST00000117648|mus_hu|FALSE|FALSE (ssRNA)
RNA: GGGAGUUCUACAGUCCGACGAUCAGAAAUGGAAUGUGACCAGAAUUCAUGGUUCUAUAUUUACCACUGUCUAAAAGUCACAAAACAAUAUCUAAUUUUUUCAUGGUUUCUAAUGCAGUUACAGUUUUGUUCUUAGGUCACAGUCAACAGAGGAUUGAGCAUCA
B12: chr10:92717539:92717540:-_ENSMUSG00000008398_ENSMUST00000008542|mus_hu|motif|central (ssRNA)
RNA: GGGAGUUCUACAGUCCGACGAUCCUGGAACAGCGUGCUUGGCCCUUGCAGCCUGGCAGGACUCAGCGGAGCAACUGGACGGAGGCUGCUCCAGAAAUGUAUGCUGGAGAGCAGUGGACUCGGAGUCAGAAGCAAUCCAUUUGGCAACAGAGGAUUGAGCAUCA
B13: 70209895_70218871_819_CDS_ENSG00000138346_ENST00000358410|human|control|control (ssRNA)
RNA: GGGAGUUCUACAGUCCGACGAUCUAUUUUGCCUUUCAAUCCAAACCUAGGGGACCAAAUGCUUUCUUCAAUAUCCAUUGGUUUCACGACUUCAAUGUUACAUGUUGAAUUAUCCUUACUAUUAUCACUUGGCAGAGAGAGCUGCAACAGAGGAUUGAGCAUCA
B14: chr1:155330963:155330964:-_ENSMUSG00000042699_ENSMUST00000042141|perfect_dup|FALSE|FALSE (ssRNA)
RNA: GGGAGUUCUACAGUCCGACGAUCCCCUUCUACUCGAACCUCACACAUGAAUUUCUGUCUGUUUUUGUUUCCUACUGCUCUAAUUUCAUAGGCUGGAGUCAUCUUCCUUUUGCCACACCAGGCAUACAGAAAAUUUUUAAUGUCCAACAGAGGAUUGAGCAUCA
B15: chr1:163112212:163112213:-_ENSG00000143248_ENST00000313961|hu_hu|hu_hu_hu_mus_False|18_68 (ssRNA)
RNA: GGGAGUUCUACAGUCCGACGAUCUUUUAUUAUCAGUAAGAGUGAGUUACAUACUAGGCAAAGUAUUGAAUACAAAAAUCAGGAAACAAACACUAUUGGUCCAGAAUUUAAAACUUUUGGGAUAAAUUGCUGGCACAGGACUUACAACAGAGGAUUGAGCAUCA
B16: chr14:89307221:89307222:+_ENSG00000165533_ENST00000346301|hu_mus|hu_hu_hu_mus_False|78_88 (ssRNA)
RNA: GGGAGUUCUACAGUCCGACGAUCUCCUGUUUGGUUAGUGCCAGGGAGUUUCAAAGACGUUCCAGGGCGUGGGACCUGAGCAAUAGCAUUUUCAUCCAGGAUCAUUUCAGCAAUUCCUUCCUGGUCCACAUCAAUUUCAUCUAUCAACAGAGGAUUGAGCAUCA
B17: chr2:153581767:153581768:+_ENSMUSG00000027479_ENSMUST00000028981|mus_mus|FALSE|FALSE (ssRNA)
RNA: GGGAGUUCUACAGUCCGACGAUCCACAGGAAUUAUUUUGUCAACGCCCAUCCUCUUGAAGCCUGCUUGUAGUAUUUUGAAGUUCUGGAUAUAUUCAUGUUCUAGCUUAGCUUGGAAUUUCACUUUCUUCAAGGCAAUGGAUCCCAACAGAGGAUUGAGCAUCA
B18: chr15:98780505:98780506:-_ENSMUSG00000072235_ENSMUST00000097014|mus_mus|FALSE|FALSE (ssRNA)
RNA: GGGAGUUCUACAGUCCGACGAUCCUUGUGACAUUUAAUUUAGUAUUCCUCUCCUUCUUCCUCCCCCUCGCCUUCCACAGAAUCCACACCAACCUCCUCAUAAUCCUUCUCUAGGGCAGCCAUGUCCUCACGGGCCUCAGAGAACAACAGAGGAUUGAGCAUCA
B19: chr2:198351390:198351391:-_ENSG00000144381_ENST00000345042|hu_hu|hu_hu_hu_mus_False|68_88 (ssRNA)
RNA: GGGAGUUCUACAGUCCGACGAUCUCAUUCCCACCCUCCACAGAAAGGCUGCUUAACAACUCUCAUGGUGGUGGCAAGCGCUACAGUCCUGAUGCUCACAGAACAGUAGAGAUGCCUCAGUGAUUUAAGUUGAAAGCAGGACACCAACAGAGGAUUGAGCAUCA
B20: chr2:47387610:47387611:-_ENSG00000143933_ENST00000272298|hu_mus|motif|central (ssRNA)
RNA: GGGAGUUCUACAGUCCGACGAUCUCCACGCAGAGUUACAGCUCCACACUUCAACAACAACAUGCUGACAGUUCCGGAAAGCGGCUUUAAAAAAGGCAUAACCCAGAUGUUCCCUCAUUGGACCAACUCCAUCUAAGUUUAGAUCAACAGAGGAUUGAGCAUCA
B21: chr1:23637546:23637547:-_ENSG00000125944_ENST00000302271|hu_mus|FALSE|FALSE (ssRNA)
RNA: GGGAGUUCUACAGUCCGACGAUCGCCAUAAUAAUCUGGAGGGUAGCCAUAUCCACCUCUCCCUCCACGACCUCGGCCUCUCAUUGGAGGUGGCAUUCGGGGAGGAGGGUGAUAAUAAUAAUCUUCAUACGCAGUGCUUCUGGACAACAGAGGAUUGAGCAUCA
B22: chr2:179515052:179515053:+_ENSMUSG00000000305_ENSMUST00000000314|mus_hu|mus_mus_mus_hu_False|68_108 (ssRNA)
RNA: GGGAGUUCUACAGUCCGACGAUCGCUUUCCCGCGCAGUCACCGUGAACGCCACCUGCUCGGAGGGGAUCUUCAACUCCCGGGUGGCGAAGACUGUCCCAUCUGCCCCAACUUUGAAGUCCAUGCUGUUGGUCUCAUAUUGUGUCAACAGAGGAUUGAGCAUCA

Some of the results follow.

The target of the assay is T1, UNK ZnF1-3. In words: nsRBNS (natural sequence RNA bind-n-seq); RBNS binding buffer (assumed for nsRBNS): 25 mM Tris pH 7.5, 150 mM KCl, 3 mM MgCl2, 0.01% Triton X-100, 500 ug/ml BSA, 20 U/ml SUPERase-In, 4 C; UNK is unkempt and MSI1 is Musashi-1; names of the RNAs are library labels; protein concentration not given here; high values mean tight binding.
In the case of B1, the binding signal is 0.484 enrichment R.
As for B2, the figure is 0.38 enrichment R; as for B3, 1.08 enrichment R.
B4: the binding signal stood at 1.02 enrichment R.
Next, B5: 1.6 enrichment R; B6: 0.891 enrichment R.
As for B7, the figure is 2.88 enrichment R; as for B8, 0.68 enrichment R; as for B9, 2 enrichment R.
In turn, B10 registered a binding signal of 1.1 enrichment R.
Next, B11: 0.515 enrichment R; B12: 0.943 enrichment R; B13: 0.977 enrichment R.
Molecule B14 gave a binding signal of 0.84 enrichment R.
Consider B15, for which the binding signal was 1.33 enrichment R.
As for B16, the figure is 1.04 enrichment R; as for B17, 0.84 enrichment R.
As for B18, the figure is 0.997 enrichment R.
The molecule B19 registered a binding signal of 1.04 enrichment R.
Next, B20: 1.1 enrichment R; B21: 0.785 enrichment R; B22: 0.733 enrichment R.
